Reference: PubChem BioAssay (NCATS)
Values joined by “and” are separate entries in the source; they are usually repeats but may differ in a detail not shown here. Equal entries are not always repeated. The inconclusive results got no clear call from the source; some entries with a clear call stand among them for comparison. Where the call is inconclusive, the potency comes from a doubtful curve fit. For part of these data: A note “side channel” means that the fit belongs to a control or component signal, not to the main read-out. Active and inactive are the calls of the source. Unless noted, calls come from the whole dose curve; as a rule, active = well fitted curve in the direction sought with a large enough effect; inconclusive = small, poorly fitted or top-dose-only effect, or another doubt; inactive = no such curve, though single readings can be large; an effect the other way counts as inactive or inconclusive. *1 amine or outer side, *2 acyl side, *3 side chain or, on linkers, in order; H or OH if unused. Where a SMILES comes first, the peptide text is derived from it. Bridges are numbered along the chain shown (N, C = ends). Roman numbers before positions name the chains, in order. [ ]: non-standard residue; d: D form. Actinocin(9to1) = Cc1c2oc3c(C)ccc(C(=O)[*:1])c3nc-2c(C(=O)[*:2])c(N)c1=O; NMeV = CN[C@H](C(=O)O)C(C)C; Sar = CNCC(=O)O

What was measured:
[1] = biological target: Cytochrome P450 2C9 (Homo sapiens) (UniProt P11712); assay: qHTS Assay for Inhibitors and Substrates of Cytochrome P450 2C9 (AID 883); note: nearly all actives have a fitted effect of over 60% in size; for activity change, negative = inhibition: % is set by controls: 0 for no effect and ±100 for the full control effect
UniProt P11712, sequence (P11712 whole entry, looked up): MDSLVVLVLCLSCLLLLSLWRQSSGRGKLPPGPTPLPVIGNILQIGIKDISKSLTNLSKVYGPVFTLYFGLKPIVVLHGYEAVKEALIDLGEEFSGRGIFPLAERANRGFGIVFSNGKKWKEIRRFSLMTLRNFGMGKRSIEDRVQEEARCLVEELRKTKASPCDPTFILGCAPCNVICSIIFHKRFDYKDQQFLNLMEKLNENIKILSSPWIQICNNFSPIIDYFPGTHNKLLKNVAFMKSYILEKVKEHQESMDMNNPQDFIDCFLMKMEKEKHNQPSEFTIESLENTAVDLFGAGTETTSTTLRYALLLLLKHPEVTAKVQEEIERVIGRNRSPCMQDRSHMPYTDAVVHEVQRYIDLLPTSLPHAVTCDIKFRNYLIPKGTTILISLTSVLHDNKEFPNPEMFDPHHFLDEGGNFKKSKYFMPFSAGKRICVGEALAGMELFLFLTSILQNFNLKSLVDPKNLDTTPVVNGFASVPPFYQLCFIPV
How it was run: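 CYP2C9 deoxyluciferin hydroxylation, 37C, 60 min with NADPH regeneration; 10nM enzyme, 100uM Luciferin-H (KM). Glo detection reagent stopped reaction; luminescence normalized to sulphaphenazole (57uM) full inhibition.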

[2] = qHTS Assay for Identification of Small Molecule Antagonists for NFkB Signaling Pathway (AID 895; active = well fitted inhibition curve with a large enough effect in the signal ratio, with a control signal flat, not every such curve was filed as active; inconclusive = small, poorly fitted or top-dose-only effect, or effect the other way, or a change in a side signal; the % refers to the signal ratio; for activity change, negative = inhibition: % is set by controls: 0 for no effect and ±100 for the full control effect); conditions: NFkB beta-lactamase reporter cells, FRET ratio 460/530, stimulated with 10 pM TNF alpha; activity change, negative = inhibition: at 38.3 µM (top of the series)
How it was run: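 NFkB-bla ME-180 cervical carcinoma cells with beta-lactamase reporter under NFkB response element; compounds added, then TNF alpha at 10 pM final (EC50), 5 h at 37 C. LiveBLAzer substrate 2 h, room temperature; emission 460/530 nm at 405 nm excitation.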

[3] = qHTS Assay for Identification of Small Molecule Agonists for Thrombopoietin (TPO) Signaling Pathway (AID 917)
How it was run: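 Luciferase reporter (Glycoprotein IIb promoter) in IL-3-deprived Ba/F3 cells carrying human TPO receptor; compounds co-added with 26 pM TPO, incubated 24 h, 37 C. Steadylite luminescence measured after 10 min.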

[4] = Cellular Toxicity (caspase-3) Renal Proximal Tubule (AID 667); conditions: renal proximal tubule cells, primary cells freshly taken from rat; Potency: caspase-3 activation; caspase-3 activation: at 91.7 µM (top of the series), solvent-only wells 0%, staurosporine 100%;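 note: cells exposed to compound for 16 hours at 37 °C before detection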;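 for caspase-3 activation: 0% = DMSO basal and 100% = 10 µM staurosporine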
How it was run: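 Caspase 3/7 activation measured by luminescent aminoluciferin release in primary rat proximal tubule cells after 16 hr compound exposure at 37 °C. AC50 from Hill-fitted concentration-response, scaled between DMSO and 10 uM staurosporine.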

[5] = qHTS Assay for Identification of Small Molecule Agonists for Hypoxia Response Element Signaling Pathway (AID 914; active = well fitted activation curve with a large enough effect in the signal ratio, with a control signal flat, not every such curve was filed as active; inconclusive = small, poorly fitted or top-dose-only effect, or effect the other way, or a change in a side signal; the % refers to the signal ratio; for activation: top concentration of the series differs between compounds; % of control where 0% means no effect); conditions: ME-180 (cervical carcinoma) HRE-bla reporter, beta-lactamase ratio, CoCl2, 17 h; activation: hits give high values
How it was run: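 qHTS titration; ME-180 HRE-bla cells; EC50 CoCl2 co-treatment, 17 h at 37 degrees Celsius; CCF4 dye, ex 405nm, em 460nm and 530nm; %Activity from ratio; AC50.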

[6] = biological target: Cytochrome P450 3A4 (Homo sapiens) (UniProt P08684); assay: qHTS Assay for Inhibitors and Substrates of Cytochrome P450 3A4 (AID 884); note: nearly all actives have a fitted effect of over 50% in size; for activity change, negative = inhibition: % is set by controls: 0 for no effect and ±100 for the full control effect
UniProt P08684, sequence (P08684 whole entry, looked up): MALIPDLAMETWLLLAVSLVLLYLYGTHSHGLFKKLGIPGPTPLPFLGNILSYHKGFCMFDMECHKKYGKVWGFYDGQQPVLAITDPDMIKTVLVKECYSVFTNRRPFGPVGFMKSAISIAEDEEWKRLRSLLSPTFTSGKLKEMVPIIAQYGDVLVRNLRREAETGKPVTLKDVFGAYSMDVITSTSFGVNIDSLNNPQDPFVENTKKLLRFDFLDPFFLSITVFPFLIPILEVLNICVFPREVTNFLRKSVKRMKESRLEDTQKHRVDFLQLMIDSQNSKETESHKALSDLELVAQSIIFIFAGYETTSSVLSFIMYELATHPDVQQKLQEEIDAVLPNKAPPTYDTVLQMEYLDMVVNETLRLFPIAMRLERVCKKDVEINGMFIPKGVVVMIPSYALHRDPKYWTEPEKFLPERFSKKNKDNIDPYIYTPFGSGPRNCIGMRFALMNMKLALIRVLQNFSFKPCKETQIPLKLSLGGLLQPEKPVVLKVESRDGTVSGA
How it was run: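 Luminescent readout of luciferin produced by CYP3A4 (20 nM) dealkylation of Luciferin-PPXE, 25 uM (its KM). NADPH-driven reaction ran 60 min at RT after 10 min compound preincubation; data scaled to 57 uM ketoconazole as 100% inhibition.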

[7] = biological target: Cytochrome P450 2D6 (Homo sapiens) (UniProt P10635); assay: qHTS Assay for Inhibitors and Substrates of Cytochrome P450 2D6 (AID 891);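 note: luciferin methyl ether substrate demethylated by CYP2D6 with NADPH regeneration; nearly all actives have a fitted effect of over 60% in size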
UniProt P10635, sequence (P10635 whole entry, looked up): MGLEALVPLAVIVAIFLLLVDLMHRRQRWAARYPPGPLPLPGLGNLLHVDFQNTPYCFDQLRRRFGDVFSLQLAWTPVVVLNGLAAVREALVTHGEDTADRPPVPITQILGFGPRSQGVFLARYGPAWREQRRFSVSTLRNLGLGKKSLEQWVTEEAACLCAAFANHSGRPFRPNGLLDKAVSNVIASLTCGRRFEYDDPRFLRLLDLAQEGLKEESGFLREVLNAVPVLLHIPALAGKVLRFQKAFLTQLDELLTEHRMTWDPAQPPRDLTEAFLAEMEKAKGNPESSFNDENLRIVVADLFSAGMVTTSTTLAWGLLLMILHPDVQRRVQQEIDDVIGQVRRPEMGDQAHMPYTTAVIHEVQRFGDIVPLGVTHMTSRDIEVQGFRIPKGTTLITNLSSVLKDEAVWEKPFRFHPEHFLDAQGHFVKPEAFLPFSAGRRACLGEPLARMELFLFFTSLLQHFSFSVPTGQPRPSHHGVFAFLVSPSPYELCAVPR
How it was run: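 Luminescent read-out of luciferin formed by 5 nM human CYP2D6 demethylating 30 uM Luciferin-ME EGE (Km level) over 60 min at room temperature after NADPH regeneration addition. Data normalized to full inhibition by 1.43 uM quinidine.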

[8] = biological target: Cytochrome P450 2C19 (Homo sapiens) (UniProt P33261); assay: qHTS Assay for Inhibitors and Substrates of Cytochrome P450 2C19 (AID 899); note: nearly all actives have a fitted effect of over 60% in size
UniProt P33261, sequence (P33261 whole entry, looked up): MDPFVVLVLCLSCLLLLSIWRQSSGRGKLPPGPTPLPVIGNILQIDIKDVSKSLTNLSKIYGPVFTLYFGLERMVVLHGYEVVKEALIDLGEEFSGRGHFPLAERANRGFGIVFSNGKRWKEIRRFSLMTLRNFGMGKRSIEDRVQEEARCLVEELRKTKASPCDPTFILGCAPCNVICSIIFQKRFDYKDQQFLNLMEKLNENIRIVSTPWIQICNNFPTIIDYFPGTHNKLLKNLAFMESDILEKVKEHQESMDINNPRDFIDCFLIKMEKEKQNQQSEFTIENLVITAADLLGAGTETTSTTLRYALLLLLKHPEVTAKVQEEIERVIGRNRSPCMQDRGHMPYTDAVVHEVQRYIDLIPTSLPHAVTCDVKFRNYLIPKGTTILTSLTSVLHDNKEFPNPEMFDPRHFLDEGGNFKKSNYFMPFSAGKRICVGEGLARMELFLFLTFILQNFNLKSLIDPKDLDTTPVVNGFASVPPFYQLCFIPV
How it was run: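 In 50mM KPO4, the reaction held 5nM enzyme and KM-level (10uM) Luciferin-H EGE; it ran 60 min at 37C after NADPH regeneration and a 10 min compound preincubation. Luminescence values were scaled to 57uM ketoconazole as complete inhibition.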

[9] = biological target: Cytochrome P450 3A4 (Homo sapiens) (UniProt P08684); assay: qHTS Assay for Activators of Cytochrome P450 3A4 (AID 885); note: nearly all actives have a fitted effect of over 65% in size
How it was run: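 CYP3A4 activity: Luciferin-PPXE O-dealkylation, 25uM substrate, 200mM KPO4, RT throughout. Read-out is luciferase luminescence; higher values reflect activation.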
Potency is the fitted concentration of half-maximal effect; tags give direction and shape of the fitted curve or compound fluorescence and quenching.

For `CNCCC=C1c2ccccc2CCc2ccccc21`, the activity change, negative = inhibition [1] was inactive: -6.44% [at 11.4 µM], the activity change, negative = inhibition [2] was inconclusive: -21.8% and the Potency [3] was inconclusive: 12.6 µM [inhibitor, single point].

For `Cc1c2oc3c(C)ccc(C(=O)N[C@@H]4C(=O)N[C@H](C(C)C)C(=O)N5CCC[C@H]5C(=O)N(C)CC(=O)N(C)[C@@H](C(C)C)C(=O)O[C@@H]4C)c3nc-2c(C(=O)N[C@@H]2C(=O)N[C@H](C(C)C)C(=O)N3CCC[C@H]3C(=O)N(C)CC(=O)N(C)[C@@H](C(C)C)C(=O)O[C@@H]2C)c(N)c1=O` (I: T[dV]P[Sar][NMeV] / II: T[dV]P[Sar][NMeV]; ester I:1-I:C, II:1-II:C; linker I:N-II:N via Actinocin(9to1)), the Potency [4] was inconclusive: 0.0126 µM [rising, full curve, poor fit].

For `NNCCc1ccccc1`, the Potency [1] was inconclusive: 0.158 µM [inhibitor, partial curve].

In the case of `CC(C)(C)CC(C)(C)c1ccc(OCCOCC[N+](C)(C)Cc2ccccc2)cc1`, the caspase-3 activation [4] is reported as inconclusive: 77.4% and the Potency [5] is reported as inconclusive: 10 µM [inhibitor, partial curve, poor fit].

For `C=C(CC)C(=O)c1ccc(OCC(=O)O)c(Cl)c1Cl`, the Potency [1] was active: 0.631 µM, the Potency [5] was inconclusive: 12.6 µM [inhibitor, single point] and the activation [5] was inconclusive: -58.9%.

With `Cc1ccc(NC(=O)c2cccc(N(C)C)c2)cc1NC(=O)c1ccc(O)cc1` the Potency [1] was “inactive”.

In the case of `CC1=C(/C=C/C(C)=C/C=C/C(C)=C/C=C/C=C(C)/C=C/C=C(C)/C=C/C2=C(C)CCCC2(C)C)C(C)(C)CCC1`, the Potency [6] is reported as “inactive”.

In the case of `OCC(O)C(O)C(O)CO` (centres undefined), the Potency [6] is reported as “inactive”.

With `COc1cccc2c1C(=O)c1c(O)c3c(c(O)c1C2=O)C[C@@](O)(C(C)=O)C[C@@H]3O[C@H]1C[C@H](N)[C@H](O)[C@H](C)O1` the caspase-3 activation [4] was inconclusive: 30.6% and the Potency [5] was inconclusive: 2.51 µM [cytotoxic, side channel, full curve].

With `Cc1nnc(NS(=O)(=O)c2ccc(N)cc2)s1` the Potency [6] was “inactive”.

With `COc1cc(/C=C/C(=O)CC(=O)/C=C/c2ccc(O)c(OC)c2)ccc1O` the caspase-3 activation [4] was inconclusive: 50.6% and the Potency [5] was inconclusive: 6.31 µM [inhibitor, partial curve].

For `CN1CCN(C(c2ccccc2)c2ccccc2)CC1`, the Potency [7] was inconclusive: 7.94 µM [inhibitor, partial curve].

With `CCCCOc1cc(C(=O)NCCN(CC)CC)c2ccccc2n1` the Potency [7] was inconclusive: 7.94 µM [inhibitor, full curve].

With `O=CCCCC=O` the Potency [6] was “inactive”.

With `O=C1NCN(c2ccccc2)C12CCN(CCCC(c1ccc(F)cc1)c1ccc(F)cc1)CC2` the Potency [6] was inconclusive: 6.31 µM [inhibitor, partial curve, poor fit], the Potency [2] was inconclusive: 10 µM [cytotoxic, side channel, partial curve] and the Potency [8] was inconclusive: 7.94 µM [inhibitor, single point]. For the same molecule, the Potency [5] was inconclusive: 25.1 µM [cytotoxic, side channel, single point], the activation [5] was inconclusive: -15.1% and the Potency [3] was inconclusive: 12.6 µM [inhibitor, partial curve].

For `COC(=O)Nc1nc2ccc(C(=O)c3cccs3)cc2[nH]1`, the Potency [1] was “inactive”, the Potency [2] was inconclusive: 0.0126 µM [inhibitor, full curve] and the Potency [5] was inconclusive: 2 µM [inhibitor, partial curve] and inconclusive: 199 nM [inhibitor, full curve]. For the same molecule, the Potency [3] was inconclusive: 0.0126 µM [inhibitor, full curve, poor fit].

With `Cc1cccc(C)c1NC(=O)CN1CCN(CCCC(c2ccc(F)cc2)c2ccc(F)cc2)CC1` the Potency [9] was inconclusive: 10 µM [activator, partial curve].

For `CC/C(=C(\c1ccccc1)c1ccc(OCCN(C)C)cc1)c1ccccc1`, the caspase-3 activation [4] was inconclusive: 42.3%, the Potency [2] was inconclusive: 11.2 µM [cytotoxic, side channel] and the Potency [5] was inconclusive: 31.6 µM [cytotoxic, single point]. The activation [5] was inconclusive: 48.1% and the Potency [3] was inconclusive: 10 µM [inhibitor, partial curve].

For `Cc1ccc(C(=O)C(C)CN2CCCCC2)cc1` (centres undefined), the Potency [6] was “inactive”.

In the case of `CCOc1ccc2nc3cc(N)ccc3c(N)c2c1`, the Potency [6] is reported as “inactive”.
